Laboratory results as given in the BET-seq Pho4 binding data (Le et al. 2018).
This is one part of the list. The energies were worked out here from pooled read counts, against the library average; single values are noisy.

Target: T1, Pho4 (S. cerevisiae) (UniProt P07270)
T1 sequence: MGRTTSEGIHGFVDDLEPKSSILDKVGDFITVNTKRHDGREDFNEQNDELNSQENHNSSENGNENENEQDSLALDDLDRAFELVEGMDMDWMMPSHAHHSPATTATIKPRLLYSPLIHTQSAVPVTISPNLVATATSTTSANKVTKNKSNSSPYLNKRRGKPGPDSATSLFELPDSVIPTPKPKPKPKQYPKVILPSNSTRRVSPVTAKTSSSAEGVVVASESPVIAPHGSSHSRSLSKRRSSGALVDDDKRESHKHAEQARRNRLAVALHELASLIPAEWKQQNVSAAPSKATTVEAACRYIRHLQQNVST
Test: relative binding free energy (BET-seq); higher = weaker binding
Details: reference: library average

Sequence | relative binding free energy [kcal/mol]
TTGTACACGTGGGTCT | -0.02
GGTGCCACGTGTAATG | 0.06
GGGTGCACGTGAGCTG | 0.13
TGCTGCACGTGGAGGT | -0.14
ATGCGCACGTGCGGGT | -0.13
GGTTTCACGTGAATGT | 0.44
GGAAGCACGTGGAGTA | 0.02
TTGATCACGTGGTTGG | 0.15
CTTATCACGTGGTCGG | 0.03
CGTGTCACGTGTGCCG | 0.19
TTCGGCACGTGATTGA | -0.04
GTGTACACGTGGTGAA | 0.09
TGTGTCACGTGATGCA | 0.13
AAGGACACGTGGGGGT | -0.09
TTGTGCACGTGATACG | 0.12
GGACGCACGTGGAGGA | -0.11
AAGGCCACGTGGCGTG | -0.2
TTCTGCACGTGGGTAA | -0.2
AGGTTCACGTGCATGG | 0.27
ATTTACACGTGCGATG | 0.15
GCGTGCACGTGCGATG | 0.1
GTTAACACGTGGGGGT | -0.07
ATTAGCACGTGTGGTC | 0.07

Sequence | relative binding free energy [kcal/mol]
ATAATCACGTGTGGTG | 0.1
ACATGCACGTGTGTGA | 0
TTGTCCACGTGTTCGT | 0
TTCCTCACGTGTGGGG | 0.26
TGGAACACGTGGCGTG | -0.1
TATTGCACGTGAATAT | 0.15
GTTTACACGTGACTTG | 0.22
GGGAGCACGTGTTATG | -0.12
GTGGGCACGTGCTGTC | -0.08
GTGAACACGTGTGGTT | 0.15
TATTACACGTGTAGTC | 0.18
GTACGCACGTGGTGGC | -0.05
TAGATCACGTGGTGTG | 0.06
TAGTACACGTGAGGGG | 0.31
TAGATCACGTGGGGAT | 0.08
ACTTTCACGTGTGAGT | 0.26
CTGGGCACGTGTGCGG | -0.19
GTAAACACGTGAGGGC | 0.32
GGGAACACGTGAGGGA | 0.37
TTCGTCACGTGGTGGC | 0.19
GGTTTCACGTGGACGA | 0.35
TAAGGCACGTGGAATG | 0.02
GGTAACACGTGTGAGA | 0.1

Sequence | relative binding free energy [kcal/mol]
GATAGCACGTGTTCTT | 0.09
TATATCACGTGTATGT | 0.14
TAGAACACGTGTTTAA | 0.12
GTCGGCACGTGAGGTT | 0.19
GAGTGCACGTGGTCTT | 0.09
TTTTGCACGTGGCGCT | -0.15
AAAGGCACGTGTTGGC | -0.11
GAACTCACGTGGGGGT | 0.08
CGTAGCACGTGGCATG | -0.19
ATATTCACGTGTCGTT | 0.18
AGTTACACGTGCGAGT | 0.13
TGGGTCACGTGCTGCG | 0.05
GGATTCACGTGTGAAT | 0.3
TCGGTCACGTGAGCTG | 0.31
TCATTCACGTGTTGAG | 0.35
GTTGGCACGTGATGAG | 0.06
TGGACCACGTGTAGTG | 0.03
TTTAACACGTGGATTA | -0.03
GCTGGCACGTGGCGTT | -0.16
AGGGCCACGTGGGGTC | -0.25
TGAAGCACGTGTTATG | -0.21
AGGGGCACGTGGGGGT | -0.19
GGATGCACGTGATAGG | 0.07

Sequence | relative binding free energy [kcal/mol]
GTGTGCACGTGTTAGT | 0.08
TATCGCACGTGGTTTT | -0.13
GATCTCACGTGAGGGG | 0.29
GGCCGCACGTGGATGG | 0.06
GTTGTCACGTGACGAG | 0.18
TGGCGCACGTGAGGAT | 0.08
TTGTTCACGTGGGAAC | 0.35
CTGTTCACGTGTTATG | 0.32
TCGGTCACGTGCTTGT | 0.03
AGAGTCACGTGATATG | 0.08
TTGGGCACGTGTGGTG | -0.02
TGATGCACGTGATTGA | 0.1
CAGGGCACGTGTAGTG | -0.05
GTCGTCACGTGGCTTT | 0.05
TTGGTCACGTGTACCG | 0.15
TGGGTCACGTGCGTGA | -0.04
CTCATCACGTGTGGGG | 0.15
CATAGCACGTGAGGTG | 0.23
ATAGTCACGTGGTGCA | -0.04
TACAGCACGTGATGGT | 0.05
CTAATCACGTGGCGGG | 0.21
CAACGCACGTGGTGTG | -0.06
CGTGGCACGTGATGAT | -0.14

Sequence | relative binding free energy [kcal/mol]
GGGTACACGTGTGGTT | 0.18
TGTTACACGTGGCTCG | 0.04
GGAAACACGTGTGTGC | 0.07
TGAGGCACGTGATGGA | 0.02
GTTGACACGTGAGTTC | 0.3
GCGTACACGTGGTGAT | 0.03
ATAGTCACGTGTATAT | 0.14
TTGTACACGTGTGGCC | 0.14
TGGTGCACGTGGATTA | 0.08
ATGTGCACGTGAAAGG | 0.03
GTTAACACGTGGTTTT | 0.1
TTTAACACGTGTATAT | -0.02
TGTTGCACGTGTTTCT | 0.11
GAGTGCACGTGTTTTT | 0.03
TGGCACACGTGTAGAG | 0.08
GAGTGCACGTGGTTAG | 0
AGATTCACGTGGTGTG | 0.2
TGTGGCACGTGACTGT | 0.02
ATAGACACGTGGTTTG | -0.02
CTCGGCACGTGTGTGG | -0.05
TGGTACACGTGGAAGA | 0.2
TGTCTCACGTGGGGAG | 0.08
GAATTCACGTGCTGTG | 0.45
